Reference: patent publication US12433952B2, “Antibody-drug conjugates targeting folate receptor alpha and methods of use” (ZYMEWORKS BC INC., priority 2022, dated 2025)

Legend:
[1] = Murine tolerability study (Balb/c); assay type: in vivo, mouse; conditions: for treatment related microscopic findings: 60 and 200 mg/kg; for treatment-related macroscopic changes: 60 or 200 mg/kg; for tolerability (body weight, mortality): single intraperitoneal doses of 60 and 200 mg/kg, Balb/c mice
Protocol: ADCs comprising humanized variant v30384 conjugated to various drug-linkers as shown in Table 30.1 were assessed for tolerability in mice at single doses of 60 and 200 mg/kg as described below.
Test articles were administered to mice (Balb/c, female, 6-8 weeks old, -20g) via 20 ml/kg intraperitoneal injections at 60 and 200 mg/kg. From each dose group, 3 mice were subject to planned observation for 3 weeks post-dose. An additional 3 mice were subject to planned observation for 1 week post-dose, followed by termination and examination of formalin-fixed, paraffin-embedded organs. Mice were euthanized if body weight fell by ≥20% from pre-dose levels. Serum collection was planned for all mice at 24 hr and 7 day post-dose for pharmacokinetic analysis.

[2] = system: EBC-1 (lung carcinoma; FRα-negative) spheroids; test: In vitro cytotoxicity of ADCs, 3D spheroids (CellTiter-Glo 3D); assay type: cell-based; conditions: EBC-1 (FRα-negative) spheroids, 6-day treatment, DAR 8
Protocol: The 3D cytotoxicity capabilities of the humanized variant v30384 conjugated to various drug-linkers as shown in Table 27.1 were assessed in a panel of FRα-expressing cell line spheroids as described below. Spheroids provide a three-dimensional organization of cells with layers of distinct cell populations and the formation of different gradients from the outer to the inner regions. Cell signaling is more complex in spheroids than in two-dimensional cell cultures. As a result of these features, spheroids have the potential to recapitulate drug resistance and metabolic adaptation.
Cell lines used were IGROV-1 (ovarian adenocarcinoma), T-47D (breast carcinoma), OVCAR-3 (ovarian adenocarcinoma), HEC-1-A (uterine adenocarcinoma) and EBC-1 (lung carcinoma; FRα-negative).
Briefly, cells were seeded in Ultra-Low Attachment 384-well plates, centrifuged and incubated under standard culturing conditions to allow for spheroid formation and growth. Monoculture cell line spheroids were then treated with a titration of test article, generated in cell growth medium. Spheroids were incubated for 6 days under standard culturing conditions. After incubation, CellTiter-Glo® 3D reagent (Promega Corporation, Madison, WI) was spiked in all wells. Plates were incubated in the dark at room temperature for 1 hour and luminescence was quantified using a BioTek Cytation 5 Cell Imaging Multi-Mode Reader (Agilent Technologies, Inc., Santa Clara, CA). Based on blank wells (no test article added), percent cytotoxicity values were calculated and plotted against test article concentration using GraphPad Prism 9 software (GraphPad Software, San Diego, CA).

[3] = Pharmacokinetics of ADCs in NCI-H2110 tumor-bearing mice (total IgG ELISA); assay type: in vivo, mouse; conditions: NCI-H2110 model, 6 mg/kg single IV dose, total IgG in serum
Protocol: Serum was collected from the xenograft studies described in Example 28, as noted, and analyzed for the pharmacokinetics (PK) of the ADCs as described below.
Absorbance at 450 nm was measured using a Synergy™ H1 Hybrid Multi-Mode Plate Reader (BioTek Instruments, Winooski, VT). Pharmacokinetics parameters were calculated from non-compartmental analysis using Phoenix WinNonlin™ software (Certara, Princeton, NJ).

NCI-H2110 CDX xenograft = test: In vivo anti-tumor activity, NCI-H2110 CDX model; design: species or system mouse; conditions: 6 mg/kg single IV dose, DAR 8
Protocol: The in vivo anti-tumor activities of humanized variant v30384 conjugated to various drug-linkers were assessed in a numberofxenograft models as describedbelow.
All ADCs were DAR 8. For each xenograft study, tumor volume and body weight of the animals were measured twice weekly.
For the NCI-H21 10 CDX model study, tumor cell suspensions (1×10^7 cells in 0.1 ml 50% Matrigel®) were implanted subcutaneously into CB. 17 SCID mice. When mean tumor volume reached ˜140 mm^3 the animals were randomly assigned to groups (n=6 per group) and treated with a single IV dose of test article on study day 0 as shown in Table 28.1.

[4] = system: FRα-negative MDA-MB-468 cells co-cultured with FRα-positive JEG-3; test: Bystander activity of ADCs (mono-culture vs co-culture, flow cytometry); assay type: cell-based; conditions: mono-culture viability compared with co-culture viability, 2 nM ADC, 4 days
Protocol: The ability of the humanized variant v30384 conjugated to various drug-linkers to exert a bystander killing effect on cancer cells was assessed according to the method described below. Bystander killing most commonly occurs after target-specific uptake of an ADC into an antigen-positive cell. Trafficking and degradation of the ADC results in release of active catabolite free drug, which then crosses the cell membrane of nearby cells to elicit cell death.
FRα-positive JEG-3 and FRα-negative MDA-MB-468 cells were seeded either as mono-cultures or co-cultures in a 48-well plate at 20,000 cells and 10,000 cells, respectively, in 100 μL assay media (Minimum Essential Media supplemented with 10% Fetal Bovine Serum (both from Thermo Fisher Scientific, Waltham, MA)). ADCs were diluted to 4 nM in assay media and 100 μL was added to the cell-containing plates (2 nM final ADC concentration). Cells were incubated with ADCs for 4 days under standard culturing conditions (37° C./5% C02). Following incubation, cells were dissociated, washed, and stained using a viability dye, YO—PRO®-1 (ThermoFisher Scientific, Waltham, MA), and an anti-FRα antibody, mirvetuximab (v17716), conjugated to Alexa Fluor®647, for 20 minutes at 4° C. After incubation, cells were washed in FACS buffer (phosphate buffered saline pH 7.4 (ThermoFisher Scientific, Waltham, MA) supplemented with 2% FBS), resuspended in 70 μL FACS buffer per well, and 35 μL per well were analyzed on a BD LSRFortessa™ Cell Analyzer (BD Biosciences, Franklin Lake, NJ). Dead cells were excluded by gating on YO—PRO®-1 staining. The number of JEG-3 and MDA-MB-468 cells were determined by the number of events in the Alexa Fluor®647 positive (FRα-positive) and Alexa Fluor®647 negative (FRα-negative) gates, respectively. Percent viability was calculated as the number of cells in treatment condition divided by the number of cells in the no-treatment condition.

[5] = system: MDA-MB-468 (breast adenocarcinoma; FRα-negative); test: In vitro cytotoxicity of ADCs, 2D monolayer (CellTiter-Glo); assay type: cell-based; conditions: 4 days, DAR 8, FRα-negative
Protocol: The cell growth inhibition (cytotoxicity) capabilities of the humanized variant v30384 conjugated to various drug-linkers were assessed in a panel of FRα-expressing cell lines as described below. Cell lines used were KB—HeLa (endocervical carcinoma), JEG-3 (choriocarcinoma), T-47D (breast carcinoma) and MDA-MB-468 (breast adenocarcinoma; FRα-negative).
Briefly, cells were seeded in 384-well plates and treated with a titration of test article, generated in cell growth medium. Cells were incubated for 4 days under standard culturing conditions. After incubation, CellTiter-Glo® reagent (Promega Corporation, Madison, WI) was spiked in all wells and luminescence corresponding to ATP present in each well was measured using a Synergy™ H1 plate reader (BioTek Instruments, Winooski, VT). Based on blank wells (no test article added), % cytotoxicity values were calculated and plotted against test article concentration using GraphPad Prism 9 software (GraphPad Software, San Diego, CA).

Molecule	treatment related microscopic findings [1]	treatment-related macroscopic changes [1]	tolerability (body weight, mortality) [1]	EC50 [2] [nM]	Half-life [3] [h]	effect on tumor growth (NCI-H2110 CDX xenograft)	% Bystander Activity [4] [%]	EC50 [5] [nM]
v30384-MC-GGFG-Compound 140 (conjugate) heavy 1: EVQLLESGGGLVQPGGSLRLSCAVSGFSLSSYGVSWVRQAPGKGLEWIGAVNSGGSAYYADSVKGRSTISRDNSKNTVYLQMNSLRAEDTAVYYCARSGSGYPMDYLAIWGQGTLVTVSSASTKGPSVFPLAPSSKSTSGGTAALGCLVKDYFPEPVTVSWNSGALTSGVHTFPAVLQSSGLYSLSSVVTVPSSSLGTQTYICNVNHKPSNTKVDKKVEPKSCDKTHTCPPCPAPELLGGPSVFLFPPKPKDTLMISRTPEVTCVVVDVSHEDPEVKFNWYVDGVEVHNAKTKPREEQYNSTYRVVSVLTVLHQDWLNGKEYKCKVSNKALPAPIEKTISKAKGQPREPQVYVYPPSRDELTKNQVSLTCLVKGFYPSDIAVEWESNGQPENNYKTTPPVLDSDGSFALVSKLTVDKSRWQQGNVFSCSVMHEALHNHYTQKSLSLSPG heavy 2: EVQLLESGGGLVQPGGSLRLSCAVSGFSLSSYGVSWVRQAPGKGLEWIGAVNSGGSAYYADSVKGRSTISRDNSKNTVYLQMNSLRAEDTAVYYCARSGSGYPMDYLAIWGQGTLVTVSSASTKGPSVFPLAPSSKSTSGGTAALGCLVKDYFPEPVTVSWNSGALTSGVHTFPAVLQSSGLYSLSSVVTVPSSSLGTQTYICNVNHKPSNTKVDKKV[human IgG1 Fc with changes not written out] light: DYQMTQSPSSVSASVGDRVTITCRASQSIGDWLAWYQQKPGKAPKLLIYEASTLASGVPSRFSGSGSGTDFTLTISSVQPEDAATYYCQQGYGRSNVDNIFGGGTKVEVKRTVAAPSVFIFPPSDEQLKSGTASVVCLLNNFYPREAKVQWKVDNALQSGNSQESVTEQDSKDSTYSLSSTLTLSKADYEKHKVYACEVTHQGLSSPVTKSFNRGEC	present in intestine, bone marrow, thymus, spleen and mesenteric lymph node	Macroscopic changes considered related to the ADCs were present in preterminal animals	rapid body weight loss, mortality or sacrifice due to moribund condition between 3-6 days post dose	7.6	64.8	stasis of tumor growth for approximately 2 weeks post-dose		
v30384-MT-GGFG-Compound 148 (conjugate) heavy 1: EVQLLESGGGLVQPGGSLRLSCAVSGFSLSSYGVSWVRQAPGKGLEWIGAVNSGGSAYYADSVKGRSTISRDNSKNTVYLQMNSLRAEDTAVYYCARSGSGYPMDYLAIWGQGTLVTVSSASTKGPSVFPLAPSSKSTSGGTAALGCLVKDYFPEPVTVSWNSGALTSGVHTFPAVLQSSGLYSLSSVVTVPSSSLGTQTYICNVNHKPSNTKVDKKVEPKSCDKTHTCPPCPAPELLGGPSVFLFPPKPKDTLMISRTPEVTCVVVDVSHEDPEVKFNWYVDGVEVHNAKTKPREEQYNSTYRVVSVLTVLHQDWLNGKEYKCKVSNKALPAPIEKTISKAKGQPREPQVYVYPPSRDELTKNQVSLTCLVKGFYPSDIAVEWESNGQPENNYKTTPPVLDSDGSFALVSKLTVDKSRWQQGNVFSCSVMHEALHNHYTQKSLSLSPG heavy 2: EVQLLESGGGLVQPGGSLRLSCAVSGFSLSSYGVSWVRQAPGKGLEWIGAVNSGGSAYYADSVKGRSTISRDNSKNTVYLQMNSLRAEDTAVYYCARSGSGYPMDYLAIWGQGTLVTVSSASTKGPSVFPLAPSSKSTSGGTAALGCLVKDYFPEPVTVSWNSGALTSGVHTFPAVLQSSGLYSLSSVVTVPSSSLGTQTYICNVNHKPSNTKVDKKV[human IgG1 Fc with changes not written out] light: DYQMTQSPSSVSASVGDRVTITCRASQSIGDWLAWYQQKPGKAPKLLIYEASTLASGVPSRFSGSGSGTDFTLTISSVQPEDAATYYCQQGYGRSNVDNIFGGGTKVEVKRTVAAPSVFIFPPSDEQLKSGTASVVCLLNNFYPREAKVQWKVDNALQSGNSQESVTEQDSKDSTYSLSSTLTLSKADYEKHKVYACEVTHQGLSSPVTKSFNRGEC	present in intestine, bone marrow, thymus, spleen and mesenteric lymph node	Macroscopic changes considered related to the ADCs were present in preterminal animals	rapid body weight loss, mortality or sacrifice due to moribund condition between 3-6 days post dose		87.4	stasis of tumor growth for approximately 2 weeks post-dose	51.7	21.2
